In PMC4336329 (PLoS ONE, 2015):
The whole screen tested about 310,000 compounds, of which about 14,000 (4.5%) showed an effect of 50% or more. The effect is printed as a negative number. This is one part of the list.

Target: human ether-à-go-go-related gene (hERG) potassium channel (human, UniProt Q12809)
Assay: primary screen, population patch clamp on CHO cells stably expressing hERG
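Also: peak tail current of the secondary pulse compared with the same well before compound.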

Sequence of human ether-à-go-go-related gene (hERG) potassium channel (Q12809 whole entry, looked up): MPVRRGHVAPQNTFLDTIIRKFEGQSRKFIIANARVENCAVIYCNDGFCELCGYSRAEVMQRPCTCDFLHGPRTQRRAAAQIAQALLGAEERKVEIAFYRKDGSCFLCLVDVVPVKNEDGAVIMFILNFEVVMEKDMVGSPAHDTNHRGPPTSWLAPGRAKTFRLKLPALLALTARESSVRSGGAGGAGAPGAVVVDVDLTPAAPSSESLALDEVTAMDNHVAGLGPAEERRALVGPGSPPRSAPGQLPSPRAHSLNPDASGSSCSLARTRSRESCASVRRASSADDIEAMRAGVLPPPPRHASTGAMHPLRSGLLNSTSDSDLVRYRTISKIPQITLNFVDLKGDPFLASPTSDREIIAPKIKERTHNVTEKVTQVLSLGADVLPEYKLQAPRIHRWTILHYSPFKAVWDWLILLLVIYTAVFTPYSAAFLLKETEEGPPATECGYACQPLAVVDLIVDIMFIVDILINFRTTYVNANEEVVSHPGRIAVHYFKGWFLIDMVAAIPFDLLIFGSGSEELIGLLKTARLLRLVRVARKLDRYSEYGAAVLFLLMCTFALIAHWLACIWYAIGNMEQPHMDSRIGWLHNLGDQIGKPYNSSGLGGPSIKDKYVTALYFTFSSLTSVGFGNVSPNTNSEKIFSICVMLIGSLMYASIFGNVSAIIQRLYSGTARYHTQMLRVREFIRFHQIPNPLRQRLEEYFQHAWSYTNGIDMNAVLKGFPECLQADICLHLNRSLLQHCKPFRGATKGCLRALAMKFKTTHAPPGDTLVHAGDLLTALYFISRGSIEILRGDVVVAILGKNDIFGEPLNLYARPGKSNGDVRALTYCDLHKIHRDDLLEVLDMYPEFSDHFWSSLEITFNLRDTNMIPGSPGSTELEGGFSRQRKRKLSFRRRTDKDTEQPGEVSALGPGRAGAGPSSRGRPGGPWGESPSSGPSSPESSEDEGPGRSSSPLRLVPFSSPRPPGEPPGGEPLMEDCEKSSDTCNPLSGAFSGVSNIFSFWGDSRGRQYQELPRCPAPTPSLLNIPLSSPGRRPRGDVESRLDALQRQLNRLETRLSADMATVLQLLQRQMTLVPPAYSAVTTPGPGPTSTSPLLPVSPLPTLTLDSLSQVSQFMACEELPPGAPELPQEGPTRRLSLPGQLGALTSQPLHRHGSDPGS

Row | Compound | hERG current change (%, negative = inhibition) at 10uM
1 | COc1ccc(Cl)cc1NC(=O)CN(C)C(=O)CNC(=O)C12CC3CC(CC(C3)C1)C2 | -16.3%
2 | OCC1(Cc2ccc(Cl)cc2)CCN(CCCc2ccccc2)CC1 | -83.9%
3 | O=S(=O)(c1ccc(F)cc1)N1CCCc2ccccc21 | -9.32%
4 | O=C(c1cccc(-n2cnnn2)c1)N1CC=C(c2ccccc2)CC1 | -37.8%
5 | CC(C)(C)NC(=O)C(=O)NNC(=O)c1cccc(Br)c1 | -0.74%
6 | Cc1cc(=O)oc(C)c1C(=O)NC12CC3CC(CC(C3)C1)C2 | -2.85%
7 | CCCCOc1ccc(Cl)cc1CSc1nnc(CC)n1N | -9.66%
8 | O=C(NCc1cccc(Cl)c1)C1CCCN(c2ncnc3c2nc2n3CCCCC2)C1 (stereo not drawn) | -73.5%
9 | Clc1ccc2nc(CSc3nnc4ccccn34)cn2c1 | -16%
10 | Cc1nnc(N/N=C/C(C)c2ccccc2)[nH]c1=O (stereo not drawn) | 5.89%
11 | CCn1c(COc2ccc3c(c2)CCCC3)nnc1SCC(=O)Nc1nccs1 | -4.08%
12 | CCOC(=O)C1(C)Oc2ccc(S(=O)(=O)CC)cc2NC1=O (stereo not drawn) | -0.937%
13 | COc1cccc(NC(=O)CN2CCC(C)CC2)c1 | 1.52%
14 | COc1ccc(C(=O)N2CCN(C(=O)c3ccco3)CC2)cc1OC | -9.09%
15 | CC(NC(=O)CSc1ncccn1)c1ccc(Cl)cc1Cl (stereo not drawn) | 60.5%
16 | CCOC(=O)c1cnc2c(F)ccc(F)c2c1Sc1ccccc1 | 2.92%
17 | COc1ccc(NC(=O)CN(C)Cc2c(F)cccc2Cl)cc1S(=O)(=O)N1CCCCC1 | -0.247%
18 | O=c1c2ccccc2c(C=NC2CCN(Cc3ccccc3)CC2)c(O)n1Cc1ccc2c(c1)OCO2 | 1.95%
19 | O=S(=O)(c1cccs1)N1CN(Cc2cccs2)c2nc3ccccc3nc21 | -1.51%
20 | CC(=O)Nc1ccc(C(O)(C(F)(F)F)C(F)(F)F)cc1 | 4.91%
21 | O=C(COc1cccnc1[N+](=O)[O-])Nc1ccc(N2CCOCC2)cc1 | -6.48%

Row | Compound | hERG current change (%, negative = inhibition) at 10uM
22 | CCCCOCC(O)Cn1c(C)nc2ccccc21.O=C(O)C(=O)O (stereo not drawn) | 1.95%
23 | C=CCN1c2ccccc2[C@]23C[C@@H](C(=O)OC)N(C(=O)c4ccc(Br)cc4)C2=NC(C(=O)OC)=C(C(=O)OC)[C@H]13 | -5.86%
24 | CC(C)(C)NC(=O)c1ccc2c(c1)N(CC(=O)N1CCCCC1)C(=O)C(C)(C)O2 | 16.3%
25 | Cc1ccc(C(C)C)c(OCC(=O)OCc2c(C)noc2C)c1 | -1.39%
26 | CCOC(=O)c1c(-c2ccc(-c3ccccc3)cc2)csc1NC(=O)c1cccc(N2C(=O)CCC2=O)c1 | 17.4%
27 | Cc1ccc(C(=O)N(Cc2ccc3c(c2)OCO3)Cc2nc3ccccc3c(=O)[nH]2)cc1 | -24%
28 | COc1cccc(CCNCc2ccc(SC)cc2)c1.O=C(O)C(=O)O | -67.7%
29 | CSc1ccccc1OCc1cc(C(=O)NCCCc2ccccc2)no1 | 12.9%
30 | COC(=O)c1cccc(C(=O)Nc2ccc(C)cc2)n1 | -7.93%
31 | O=C(NC1CC1)C1CCN(S(=O)(=O)c2ccc(Cl)cc2)CC1 | -2.36%
32 | O=S(=O)(NCCn1ccc2ccccc21)c1ccccc1 | -28.5%
33 | CC1CCc2nc(NC(=O)CN3CCN(Cc4ccc5c(c4)OCO5)CC3)sc2C1 (stereo not drawn) | -66.7%
34 | COC(=O)C1=C(CS(=O)(=O)c2cc(Cl)ccc2OC)NC(=O)NC1c1ccc(O)c(OC)c1 (stereo not drawn) | 18.6%
35 | CCOc1ccc(CN(C)C(=O)c2ccc(=O)[nH]c2)cc1 | 16.6%
36 | Cc1ccc(NC(=O)c2cc3c(s2)CCCC3)cc1S(=O)(=O)Nc1ccccc1Cl | -1.3%
37 | CCOC(=O)CCNC(=O)N1CCCC(N2CCN(c3ccc(OC)cc3)CC2)C1 (stereo not drawn) | 3.6%
38 | COc1cccc(NC(=O)CN(C)C(=O)CCc2nc3sc4c(c3c(=O)[nH]2)CCCC4)c1 | 1.87%
39 | CC(OC(=O)COc1ccc(Nc2ccccc2)cc1)C(=O)N(C)c1ccccc1 (stereo not drawn) | 24.6%
40 | CCN(C(=O)Cc1cccs1)c1nnc(-c2cccnc2)s1 | -8.94%
41 | Cc1ccc(NC(=O)CSc2nc3ccccc3c3nc(CCc4c(C)n[nH]c4C)nn23)cc1F | -11.7%
42 | CCOc1ccc2nc(N3CCCC(C(=O)NCCCN4CCOCC4)C3)sc2c1 (stereo not drawn) | -19.6%

Row | Compound | hERG current change (%, negative = inhibition) at 10uM
43 | CCN(CCO)C(=S)Nc1cc(C(=O)OC)ccc1C(=O)OC | -18.2%
44 | COc1ccc(NS(=O)(=O)c2cccc(C(=O)NCC3(N4CCCCC4)CCCCC3)c2)cc1 | -55.4%
45 | CCCC(=O)NCCc1nc2ccccc2n1C | 17.4%
46 | CC(C)n1ncc2c(C(=O)N3CCN(c4ccccc4)CC3)cc(-c3ccccc3)nc21 | 17.2%
47 | CCn1c(=O)cc(OCC(=O)NCc2cccs2)c2ccccc21 | -8.89%
48 | CCCOc1ccc(C2c3c(oc4cc(C)c(C)cc4c3=O)C(=O)N2CCCN(C)C)cc1 (stereo not drawn) | -8.22%
49 | Cn1cc(/C=C(\NC(=O)c2ccccc2Cl)C(=O)NCCCN2CCOCC2)c2ccccc21 | 11%
50 | CNc1c(N=Cc2cccnc2)c(=O)n(C)c(=O)n1C | 11.9%
51 | CS(=O)(=O)N1CCC(C(=O)NCCC2=CCCCC2)CC1 | -4.99%
52 | Cc1[nH]c2ccccc2c1C(=O)C(C)OC(=O)c1ccc(NC(=O)CC#N)cc1 (stereo not drawn) | -4.77%
53 | CC(C)CNC(=O)c1c(N)n(/N=C/c2ccccn2)c2nc3ccccc3nc12 | 16.3%
54 | CCCN(C(=O)CSc1nnc(-c2ccoc2C)n1N)C1CCS(=O)(=O)C1 (stereo not drawn) | 5.3%
55 | O=C1CN(c2ccccc2)C(=S)N1C(=O)c1ccccc1 | 12.5%
56 | CCCC1C(=O)N(c2ccccc2)C1c1ccccc1 (stereo not drawn) | 8.03%
57 | O=C(CSc1nnnn1-c1cccc2c1CCCC2)N1CCCC1 | -28.1%
58 | Cc1ccc(N2C(=O)c3cccc([N+](=O)[O-])c3C2=O)cc1C | 6.63%
59 | CCOCCCNC(=O)/C(C#N)=C/c1cc(OC)c(O)c([N+](=O)[O-])c1 | 7.68%
60 | O=C(CN1C(=O)S/C(=C\c2ccccc2F)C1=O)NCCCn1ccnc1 | -9.34%
61 | COc1ccc(NC(=O)c2cc(-c3ccc4c(c3)OCO4)on2)cc1 | -20.3%
62 | N#CCCN(Cc1ccccc1)C(=O)c1nccnc1C(=O)O | 21%
63 | COc1ccc(C(O)(C2CCCCC2)C(CN2CCCC2)c2ccccc2)cc1.Cl (stereo not drawn) | -31.4%

Row | Compound | hERG current change (%, negative = inhibition) at 10uM
64 | C#CCN1C(=O)C(O)(CC(=O)c2cc(OC)ccc2OC)c2ccccc21 (stereo not drawn) | 5.73%
65 | O=C(COc1c(F)c(F)c(C(F)(F)F)c(F)c1F)Nc1ccc(N2CCOCC2)c(Cl)c1 | -9.46%
66 | Cc1ccc(C(=O)Nc2ccc(N3CCOCC3)cc2)cc1S(=O)(=O)N1CCCCC1 | -10.1%
67 | O=C(NCc1ccc(Cl)cc1Cl)C1CCN(S(=O)(=O)c2ccc3c(c2)OCCCO3)CC1 | -7.29%
68 | Cc1ccc2nc(-c3ccc(NS(=O)(=O)c4c(C)n(C)c(=O)n(C)c4=O)cc3)sc2c1 | -3.97%
69 | O=C(Cn1c(COc2ccc(Cl)cc2)nc2ccccc21)NCC(F)(F)F | 13.9%
70 | O=C1c2ccccc2-c2nc3ccccc3n21 | 6.8%
71 | CCOc1ccc(Br)cc1S(=O)(=O)N1CCCC1 | -7.56%
72 | O=C(N[C@@H](Cc1ccccc1)C(=O)NC1CCCCC1)c1ccco1 | 6%
73 | Cc1ccc(N=c2c([N+](=O)[O-])nn(-c3ccc4c(c3)OCCO4)n2O)cc1F | 6.13%
74 | CC(C)CCNC(=O)CN(CCCN1CCOCC1)C(=O)Cn1nnc(-c2ccc(F)cc2)n1 | -28%
75 | COC(=O)/C(=C/c1ccc2c(c1)c1ccccc1n2C)NC(=O)c1ccccc1 | 8.1%
76 | CCOc1ccccc1NC(=O)CSc1nnc2ccc(-c3ccncc3)nn12 | -54.3%
77 | CC1(C)Cc2c(cnn2-c2ccccc2)C(NC(=O)CCN2CCCC2=O)C1 (stereo not drawn) | 6.21%
78 | CC(C)(C)C(=O)NC(=S)Nc1sc2c(c1C#N)CCCCC2 | 2.15%
79 | CCOc1ccc(N(C)S(=O)(=O)c2ccc3[nH]cc(C(=O)NCC(OC)OC)c(=O)c3c2)cc1 | 6.94%
80 | Clc1ccc(-n2cc(-c3ccc(Br)cc3)[n+]3c2CCCCC3)cc1.[Br-] | -49.4%
81 | CCCCn1c(N)c(N(CCOC)C(=O)c2sc3cc(F)ccc3c2Cl)c(=O)[nH]c1=O | -14%
82 | O=c1cc(O)c2sc(Nc3ccc(F)c(Cl)c3)nc2[nH]1 | 34.2%
83 | CCOc1cc(NC(=O)c2ccco2)c(OCC)cc1NC(=O)COc1ccccc1 | 0.786%
84 | O=C(c1ccccc1)C1Oc2ccccc2C2CC(c3cccs3)=NN12 (stereo not drawn) | -0.576%
